Laboratory results: PMC6919601, “Identification of Plasmodium dipeptidyl aminopeptidase allosteric inhibitors by high throughput screening” (PLoS ONE, 2019)
Out of some 110,000 compounds screened, about 230 (0.21%) showed an effect of 50% or more. This is one part of the list.

The compounds below were run against DPAP1 (Plasmodium falciparum, UniProt Q8IIJ9) (assay: primary screen, percent inhibition; read by cleavage of a fluorogenic dipeptide substrate; higher = more effect of the substance).
Sequence of DPAP1 (Q8IIJ9 whole entry, looked up): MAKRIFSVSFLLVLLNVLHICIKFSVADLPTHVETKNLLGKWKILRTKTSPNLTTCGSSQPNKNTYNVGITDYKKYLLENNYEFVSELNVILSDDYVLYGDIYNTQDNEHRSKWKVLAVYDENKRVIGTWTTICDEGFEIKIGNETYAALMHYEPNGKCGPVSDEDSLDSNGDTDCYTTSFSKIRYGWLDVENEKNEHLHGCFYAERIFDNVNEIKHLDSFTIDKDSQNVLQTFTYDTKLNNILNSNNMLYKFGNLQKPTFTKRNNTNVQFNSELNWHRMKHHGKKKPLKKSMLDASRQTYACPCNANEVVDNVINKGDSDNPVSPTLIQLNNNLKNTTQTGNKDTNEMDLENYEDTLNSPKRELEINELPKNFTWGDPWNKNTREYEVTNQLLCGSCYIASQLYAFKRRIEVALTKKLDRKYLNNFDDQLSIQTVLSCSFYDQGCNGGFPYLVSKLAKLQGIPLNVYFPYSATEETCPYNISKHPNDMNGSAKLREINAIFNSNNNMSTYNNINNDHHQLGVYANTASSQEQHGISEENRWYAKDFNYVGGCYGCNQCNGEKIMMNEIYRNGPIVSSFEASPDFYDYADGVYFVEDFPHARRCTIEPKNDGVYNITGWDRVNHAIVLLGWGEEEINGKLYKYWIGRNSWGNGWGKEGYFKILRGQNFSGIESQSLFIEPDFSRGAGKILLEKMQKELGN
Set-up: species or system P. falciparum D10 trophozoite lysates; single well
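Further: 30 min substrate incubation versus DMSO and 10 µM JCP410 controls.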

Compound	% Inhibition @ 10 uM
CCOc1ccc(NCC(CC(=O)O)C(=O)O)cc1 (stereo not drawn)	16.8%
CCOC(=O)CSc1ccc2ccccc2n1	-0.294%
N#Cc1c(N)nc2c(c1-c1cccc(Br)c1)CCCCC2	-3.14%
O=C(CN(C1CCCCC1)S(=O)(=O)c1ccc(Cl)cc1)N1CCc2ccccc2C1	-7.09%
N#CCNC(=O)[C@@H](Cc1ccccc1F)NC(=O)OCc1ccccc1	0.079%
Clc1ccc(CCNc2nc3ccccc3c3nncn23)cc1	48.8%
Cc1ccc(C(=O)CSc2nc(N)c(C#N)c(-c3ccc(O)cc3)c2C#N)cc1	-2.47%
Cc1ccc(C(=O)NCCc2c(C)[nH]c3ccccc23)cc1	-0.116%
O=[N+]([O-])c1ccc(CN2CCCCCC2)cc1	-0.0404%
CCc1ccc(CNC(=O)c2cnc(SC)nc2-c2ccccc2)cc1	2.42%
O=C(NCC1CCCO1)c1ccc(F)c2ccccc12 (stereo not drawn)	-7.3%
CSc1ccc(CN2CCN(C)CC2)cc1	4.81%
COc1ccc(-c2noc(NC(C)c3ccc4c(c3)OCCO4)n2)cc1 (stereo not drawn)	3.54%
COc1ccc(CCNS(=O)(=O)c2c(C)cc(C)c(-n3cnnn3)c2C)cc1OC	-2.63%
COCCNC(=O)CN(Cc1ccccc1)S(=O)(=O)c1ccccc1	-3.41%
COCCCNc1oc(-c2cccs2)nc1S(=O)(=O)c1ccc(Cl)cc1	-3.18%
NS(=O)(=O)c1ccc(NC(=O)c2ccc([N+](=O)[O-])o2)cc1	4.26%
O=C(CNS(=O)(=O)c1ccccc1)Nc1ccc2c(c1)OCO2	1.39%
CCCCN(Cc1ccco1)S(=O)(=O)c1cc(-c2cc(C)no2)ccc1C	5.01%
CC1=CC(C)(C)C(C(=O)O)C(C(=O)O)C1 (stereo not drawn)	3.34%
O=C(Nc1ccccc1)c1sc(-c2ccccc2)nc1-c1ccccc1	-3.77%
Cc1cc(=O)oc2c(C)c3occ(-c4ccccc4)c3cc12	-0.958%
CS(=O)(=O)Oc1ccc(/C=C2/C(=N)N3C(=NC2=O)SN=C3S(C)(=O)=O)cc1Cl	0.163%
CCn1nc(C(=O)Nc2ccc(C)c(C)c2)c(Cl)c1Cl	-3.16%
Cc1ccccc1Cn1ccn(Cc2ccc(Cl)cc2)c(=O)c1=O	-2.88%

Compound	% Inhibition @ 10 uM
Cc1ccccc1C1=N/C(=C\c2cccn2C)C(=O)O1	4.54%
CN(C1CCCCC1)C(CNS(=O)(=O)c1ccccc1)c1ccccc1 (stereo not drawn)	1%
COc1ccccc1C(=O)Nc1ccc(C(=O)c2ccccc2)cc1	-0.884%
CCC(C(=O)Nc1ccc(N(CC)CC)cc1)c1ccccc1 (stereo not drawn)	-6.65%
CCN1C2=C(C(=O)CC(C)(C)C2)C(c2cc(OC)c(O)c(SC#N)c2)C2=C1CC(C)(C)CC2=O	6.31%
O=C(c1ccc(CS(=O)c2ccccc2)o1)N1CCC2(CC1)OCCO2 (stereo not drawn)	-6.89%
CSCCC(C(=O)Nc1cccc2ccccc12)N1C(=O)c2ccccc2C1=O (stereo not drawn)	2.33%
CC(C)CNC(=O)c1cccc(Cn2cc(Cl)cn2)c1	-6.94%
CCc1oc(C(=O)O)cc1CN1CCOCC1	-7.33%
O=C(O)CCCNc1nc(Cl)nc(N2CCCCC2)n1	-5.51%
CC(C)(C)NC(=O)CCS(=O)(=O)c1ccccc1	-1.84%
CCOC(=O)c1c(C)[nH]c(C)c1S(=O)(=O)NCC(=O)Nc1cc(C)nc2ccccc12	-1.59%
COc1ccc(-c2nc3s/c(=C\c4ccc(C)cc4)c(=O)n3n2)cc1OC	2.24%
Cc1ccc2c(c1)c1c(c(=O)n(Cc3ccccc3)c(=O)n1CC(N)=O)n2C	-0.401%
C=Cc1ccc(CSc2nc3ncccc3o2)cc1	7.72%
CCOC(=O)N1CCN(C(=O)CSCc2nc(-c3ccc(CC)cc3)oc2C)CC1	0.689%
N#Cc1cc2c(nc1SCC(=O)O)CCCCC2	-0.68%
Cc1ccc(C(=O)Nc2cccc(C)c2)cc1	-5.84%
CCOC(=O)c1cc(-c2ccc(F)cc2)n(CC(=O)NCC2CCCO2)c1C (stereo not drawn)	1.27%
Cc1ccc(C(=O)Nc2ccccc2C(N)=O)cc1	-2.42%
CC1=C(C(=O)Nc2cccnc2)C(c2ccncc2)n2nc(-c3ccccc3)nc2N1 (stereo not drawn)	-17%
Cc1ccccc1CSc1nc(O)c2[nH]cnc2n1	-5.18%
Cc1ccc(Cl)cc1-n1ncc2c(N3CCN(CCO)CC3)ncnc21	-3.2%
O=C(CSc1cn(CC(=O)N2CCCC2)c2ccccc12)NCCc1ccccc1	3.77%
CC(C)C[C@H](NC(=O)OCc1ccccc1)C(=O)NC1(C#N)CC[SH+](O)(O)CC1	0.173%

Compound	% Inhibition @ 10 uM
CCOc1ccc(NC(=O)c2ccc(C)cc2)cc1	3%
CCN(CC)CCN(CC)Cc1ccc(Cl)cc1Cl	-2.34%
O=C(CCn1c(=O)c2cccn2c2cccnc21)N1CCC(N2CCCCC2)CC1	2.6%
Cn1cnc2c(=O)oc3ccc(S(=O)(=O)N4CCN(C(=O)c5ccco5)CC4)cc3c21	1.14%
COc1ccc(NC(=O)c2cc(Cl)c(Cl)cc2C(=O)O)cc1	-1.95%
Cc1coc2c(C)c3oc(=O)c(CC(=O)NCCc4ccccc4)c(C)c3cc12	0.895%
Cc1cc(Cl)ccc1-n1c(S)nnc1CN1CCN(C)CC1	-2.42%
CC1=CC2=NC(=O)/C(=C\c3ccc(OCc4ccccc4)c(Cl)c3)C(=N)N2O1	-3.23%
Cc1cc(C)c2c(C(C)(C)C)nn(-c3ccccc3)c2n1	4.94%
O=C(NCc1ccccc1)c1c(NS(=O)(=O)c2ccccc2)sc2c1CCCC2	2.95%
O=C(/C=C/c1ccccc1)NCCn1ccc2ccccc21	-7.51%
O=c1cccc2n1C[C@H]1C[C@@H]2CN(Cc2ccc(F)cc2)C1	-0.13%
Cc1cccc(NC(=O)c2nn(C)c3c2CSc2ccccc2-3)n1	-3.51%
COc1ccc(-n2nc3c(c2NC(=O)c2cc(OC)c(OC)c(OC)c2)CS(=O)(=O)C3)cc1	6.85%
Cc1ccc(NC(=O)c2ccc(C(C)(C)C)cc2)cc1O	-1.09%
CCOC(=O)C1=C(C)N=c2s/c(=C\c3ccc(N(CC)CC)cc3)c(=O)n2C1c1ccccc1Cl (stereo not drawn)	-7.19%
CCC(=O)Nc1ccc(NC(=N)Nc2nc(C)cc(C)n2)cc1	-8.94%
Cc1ccc(NC(=O)CN(c2ccccc2F)S(=O)(=O)c2ccccc2)c(C)c1	3.66%
CC(=O)N/C(=C/c1ccccc1)C(=O)N1CCN(C(=O)/C(=C\c2ccccc2)NC(C)=O)CC1	-2.24%
Fc1ccc(Cn2cccc2C2=NC(c3ccccc3)CO2)cc1 (stereo not drawn)	-1.58%
Cc1[nH]c2ccccc2c1C(c1cccnc1)N1CCC(C)CC1 (stereo not drawn)	1.05%
Cc1ccc(C2=NN(C(=O)CCCC(=O)O)C(c3ccc4c(c3)OCO4)C2)cc1 (stereo not drawn)	-2.77%
CCCn1c2ccccc2c2cnn(CC(=O)NCC3CCN(Cc4cccc(C)c4)CC3)c(=O)c21	-4.25%
COCCN1C(=O)c2ccc(C34CC5CC(CC(C5)C3)C4)cc2C1=O	-3.53%
Oc1ccc(CN2CCC3(C=Cc4ccccc43)CC2)cc1	-1.64%

Compound	% Inhibition @ 10 uM
CC(=O)c1cc2c(cc1NC(=O)c1ccccc1C)OCO2	3.49%
Cc1cc(C)nc(N2CC(=O)N(CCOc3ccc(Br)cc3)C2=O)n1	6.37%
CS(=O)(=O)c1ccc2ccc(S(C)(=O)=O)cc2c1	-1.91%
COc1ccccc1CN1CCN(Cc2cccc(OC)c2OC)CC1	13.3%
Cc1cccc(N(CC(=O)Nc2ccc3c(c2)OCO3)S(C)(=O)=O)c1C	-1.82%
Cc1ccc(C(=O)Nc2ccc(NC(=O)c3cccs3)cc2)cc1	-9.4%
O=C(Nc1ccccc1F)c1ccc(CNS(=O)(=O)c2cccc(Cl)c2)cc1	-1.61%
COc1ccc(CC(=O)Nc2sc3c(c2C#N)CC(C)(C)NC3(C)C)cc1	3.23%
Cc1cccc(C(=O)Nc2nnc(S(=O)(=O)N3CCCCCC3)s2)c1	-3.51%
O=C(CSc1nnc2ccccn12)c1ccc(Cl)cc1	4.08%
CC(=O)N1c2ccccc2N=C2CC(C)(C)CC(O)=C2C1c1cccc(O)c1 (stereo not drawn)	3.65%
O=C(NC1CCCC1)c1ccccc1Cl	-1.62%
Cc1nnc2sc(-c3csc4c3CCCC4)nn12	-0.0735%
CCN1CCN(C(=O)Nc2ccc(Cc3ccc(NC(=O)N4CCN(CC)CC4)cc3)cc2)CC1	-3.77%
CCC1CCc2c(nc3ccccc3c2O)O1 (stereo not drawn)	-1.37%
CCOC(=O)N1CCC(NC(=O)c2cnn3c(C)c(Cc4cc(C)ccc4C)c(C)nc23)CC1	-0.406%
COc1cccc(C2CC(C(F)(F)F)n3ncc(C(=O)N4CCCCC4C)c3N2)c1 (stereo not drawn)	0.0289%
COc1cc(C2CC(=O)NC3=C2C(=O)CC(c2ccc(F)cc2)C3)c(OC)cc1Br (stereo not drawn)	4.78%
O=C(NCCCN1CCCC1=O)c1cc2nc(-c3ccco3)cc(C(F)(F)Cl)n2n1	0.323%
COc1cccc(C2C(C#N)=C(N)Oc3cc(C)n(CCN4CCOCC4)c(=O)c32)c1OC (stereo not drawn)	2.1%
CCCOc1ccc(C(=O)C2=C(O)C(=O)N(Cc3cccnc3)C2c2ccccc2F)c(C)c1 (stereo not drawn)	1.52%
CC(NC(=O)c1cccs1)c1ccc2c(c1)OCCCO2 (stereo not drawn)	3.8%
Cn1ncc(C(=O)N2CCOCC2)c1C1CCN(C(=O)OC(C)(C)C)CC1	7.3%
NS(=O)(=O)c1ccc(CNC(=O)c2ccccc2F)cc1	-0.661%
